# PubChem BioAssay AID504832 (National Center for Advancing Translational Sciences (NCATS), 2011)
# About 18,000 (5.8%) of roughly 310,000 compounds were called active. The shares of active, inactive and inconclusive entries below differ from those in the screen. Calls come from the whole dose curve; as a rule, active = well fitted inhibition curve with a large enough effect; inconclusive = small, poorly fitted or top-dose-only effect, or another doubt; inactive = no such curve, though single readings can be large or run the other way. Potencies of inconclusive entries are left out as doubtful fits.
# Experiment: Primary qHTS for delayed death inhibitors of the malarial parasite plastid, 48 hour incubation
# Conditions: P. falciparum luciferase growth in erythrocytes; series mostly up to 28.7 µM
# Procedure, shortened: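 Luciferase-expressing parasites in RBCs, 2% Hct / 0.1% parasitemia final; RPMI 1640 + 0.5% Albumax; 37 C, 5% CO2, one generation; luminescence read-out, lower signal = inhibition.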
# % is set by controls: 0 for no effect and ±100 for the full control effect; potency is the fitted concentration of half-maximal effect; tags give direction and shape of the fitted curve.
Compound,Potency,"activity change, negative = inhibition"
CCN(C(=O)CSc1nnc(Nc2ccccc2C)s1)C1CCS(=O)(=O)C1 (stereo not given),"inconclusive [inhibitor, single point]",–
CCOc1cc(/C=C2\SC(=Nc3ccc(CC)cc3)NC2=O)ccc1OCC(=O)O,"inconclusive [inhibitor, single point]",–
COc1ccc(CNC(=O)c2ccc(SC)cc2OC)cc1,"inconclusive [inhibitor, single point]",–
CC/S(C)=N/S(=O)(=O)c1ccc(C)cc1 (stereo not given),inactive,–
CCOC(=O)c1ccc(Oc2cn[nH]c2-c2ccc(OCC(=O)NN)cc2O)cc1,"inconclusive [inhibitor, partial curve]",–
Cc1cccc(-n2c(C)cc(/C=N/NC(=O)c3ccc(CN4CCOCC4)cc3)c2C)c1,"inconclusive [inhibitor, partial curve]",–
COc1ccc(NC(=O)c2ccc(NCCN3C(=O)CCC3=O)c([N+](=O)[O-])c2)cc1,inactive,–
O=C(Cn1cnc([N+](=O)[O-])n1)N/N=C/c1ccc(O)cc1O,"inconclusive [inhibitor, single point]",–
COc1ccc([N+](=O)[O-])cc1NCc1ccccc1C,"inconclusive [inhibitor, partial curve]",–
N#C/C(=C/c1ccc(Br)o1)C(N)=S,"inconclusive [inhibitor, partial curve, poor fit]",–
Cc1ccc(Nc2ccc(C(=O)NC3CCCCC3)cn2)cc1,"inconclusive [inhibitor, single point]",–
Cc1ccsc1/C=N/NC(=O)c1cc(-c2ccncc2)nc2ccccc12,"inconclusive [inhibitor, single point]",–
CCOC(=O)c1ccc(NS(=O)(=O)c2ccc3c(c2)CCCN3C(C)=O)cc1,"inconclusive [inhibitor, partial curve, poor fit]",–
S=C1NC[C@H](c2ccccc2)N1CC1CCCCC1,"inconclusive [inhibitor, partial curve]",–
CCCOC(=O)c1cccc(Nc2nc(-c3cccnc3)nc3ccccc23)c1,active: 9.28 µM,–
CCOC(Cn1cc(C)c(=O)[nH]c1=O)OCC,inactive,–
CCN(C(=O)c1cccc(S(=O)(=O)N(C)C)c1)C12CC3CC(CC(C3)C1)C2,"inconclusive [inhibitor, partial curve, poor fit]",–
COCCN1C(=O)c2ccccc2C(C(=O)NCC2CCCO2)C1c1c[nH]c2ccccc12 (stereo not given),"inconclusive [inhibitor, partial curve]",–
C/C(=N\Nc1nc2ccccc2[nH]1)c1ccc(C)o1,"inconclusive [inhibitor, full curve]",–
CCOCCCNc1ccc(N2C(=O)CCCC2=O)cc1[N+](=O)[O-],inactive,–
Oc1ccccc1N=Cc1c(O)ccc2oc3c(c12)CCCC3,"inconclusive [inhibitor, single point]",–
COc1ccc(C2C(=O)N(C3CCCCC3)CC(=O)N2Cc2ccc3c(c2)OCO3)cc1 (stereo not given),"inconclusive [inhibitor, full curve, poor fit]",–
CC(C)NCC(O)COc1ccccc1-n1cccc1 (stereo not given),inactive,–
Cc1ccccc1NN1C(=O)C=CC1=O,"inconclusive [inhibitor, partial curve, poor fit]",–

Compound,Potency,"activity change, negative = inhibition"
O=C(Nc1nc(-c2ccccn2)cs1)C1CCCC1,"inconclusive [inhibitor, full curve]",–
O=C(NCc1ccccc1)C(c1ccccc1)N(C(=O)c1csnn1)C1CCCC1 (stereo not given),inactive,–
COC(=O)COc1ccc(-n2cnnn2)cc1,–,inactive: -11.3% [at 5.75 µM]
COCCCn1c(C)nnc1-c1cnn(-c2ccccc2)c1N,"inconclusive [inhibitor, single point]",–
NC(=O)c1ccccc1NC(=O)Nc1cccc2ccccc12,"inconclusive [inhibitor, partial curve, poor fit]",–
Cc1cc(C)nc(SCC(CSc2nc(C)cc(C)n2)C(=O)O)n1,inactive,–
CCn1c(C)c(C(C)=O)c(NCc2ccccc2)nc1=S,"inconclusive [inhibitor, partial curve, poor fit]",–
C=CCN1CCN(C(=O)CCCc2ccccc2)CC1,inactive,–
Cc1ccc(S(=O)(=O)N(CC(=O)NN=C2CCN(C)CC2)c2ccc(C(C)C)cc2)cc1,"inconclusive [inhibitor, partial curve, poor fit]",–
O=C(Cn1cc(C(F)(F)F)ccc1=O)Nc1cc(S(=O)(=O)N2CCOCC2)ccc1Cl,inactive,–
O=C(Nc1ccc(F)cc1F)NC1CC(=O)N(Cc2ccccc2)C1 (stereo not given),"inconclusive [inhibitor, single point]",–
CON(c1nc(Cl)nc(N(C)C)n1)S(=O)(=O)c1ccccc1Cl,inactive,–
CCOc1ccc(CCNC(=O)COC(=O)c2cc(OC)c(OC)c(OC)c2)cc1OCC,"inconclusive [inhibitor, partial curve, poor fit]",–
Cc1ccc(N2CC(C(=O)NC3=NCCS3)CC2=O)cc1C (stereo not given),"inconclusive [inhibitor, partial curve]",–
O=C(O)CC/C(=N/NC(=O)c1ccc(-c2ccccc2)cc1)c1ccccc1,inactive,–
CC(C)(C)C1COc2ccccc2N1C(=O)c1ccccc1Cl (stereo not given),inactive,–
Cc1ccccc1Cn1cc(NC(=O)c2noc(C(C)C)c2[N+](=O)[O-])cn1,"inconclusive [inhibitor, single point]",–
OC1O[C@H](c2ccc3c(c2)OCO3)[C@H]2CO[C@H](c3ccc4c(c3)OCO4)[C@@H]12 (stereo not given in full),inactive,–
Cc1ccc(-c2noc(C3CCCN(C(=O)c4ccccc4Br)C3)n2)o1 (stereo not given),"inconclusive [inhibitor, single point]",–
Cc1ccc(S(=O)(=O)c2nc(S(C)(=O)=O)sc2N2CCCCCC2)cc1,"inconclusive [inhibitor, partial curve]",–
CC(NC(=O)CSc1ncn[nH]1)c1ccc(Cl)cc1Cl (stereo not given),inactive,–
COc1ccc(C(=O)NC2CCCN(Cc3ccc(Cl)cc3)C2)c(OC)c1 (stereo not given),"inconclusive [inhibitor, partial curve, poor fit]",–
CCc1ccc(N2CC(C(=O)N/N=C/c3cc([N+](=O)[O-])ccc3O)CC2=O)cc1 (stereo not given),"inconclusive [inhibitor, single point]",–
COc1ccc(Cc2n[nH]c(=S)n2Cc2ccccc2)cc1Cl,"inconclusive [inhibitor, partial curve, poor fit]",–

Compound,Potency,"activity change, negative = inhibition"
C=CCNC(=O)NC(=O)Cn1c(=O)c2c(ncn2CC)n(Cc2ccccc2)c1=O,"inconclusive [inhibitor, full curve, poor fit]",–
COC(=O)COc1cc2ccccc2cc1C(=O)Nc1ccccc1,"inconclusive [inhibitor, partial curve]",–
CC(C)C[C@H]1CN=C(Nc2ccccc2)N1CCCC1CCCC1,"inconclusive [inhibitor, single point]",–
CCCCOc1ccc(C(=O)Nc2cc(C)c(OCC(=O)N3CCOCC3)c(C)c2)cc1,inactive,–
COc1cc(OC)c(C(=O)Nc2ccncc2)cc1OC,inactive,–
O=C(O)CNC(=O)C(c1ccccc1)c1ccccc1,active: 13.1 µM,–
COc1ccc2nc(NC(=O)C3CCN(C(=O)c4ccc(F)cc4)CC3)sc2c1,"inconclusive [inhibitor, partial curve]",–
O=C(NCCCn1ccnc1)c1nn2c(C(F)(F)F)cc(-c3ccc(Br)cc3)nc2c1Cl,active: 1.47 µM,–
CCCNc1cc(=S)nc(N)[nH]1,"inconclusive [inhibitor, partial curve, poor fit]",–
COCCNC(=O)c1c(N)n(-c2cccc(C)c2)c2nc3ccccc3nc12,"inconclusive [inhibitor, single point]",–
O=C(Nc1ccccc1C(=O)NC(Cc1ccccc1)C(=O)NC1CCCCC1)c1ccccc1 (stereo not given),active: 10.4 µM,–
COc1ccc(NC(=S)Nc2ccc3nsnc3c2)cc1,inactive,–
Cc1cc(S(=O)(=O)Nc2ccc3c(c2)n(C)c(=O)n3C)ccc1F,"inconclusive [inhibitor, partial curve, poor fit]",–
CCOC(=O)c1ccc(N=C(C)c2c(O)[nH]c(=O)[nH]c2=O)cc1,"inconclusive [inhibitor, partial curve, poor fit]",–
O=C(NCCc1ccccc1)/C(=C\c1ccc([N+](=O)[O-])cc1)NC(=O)c1ccco1,"inconclusive [inhibitor, full curve, poor fit]",–
c1ccc(COn2nnc3ccccc32)c(COn2nnc3ccccc32)c1,"inconclusive [inhibitor, partial curve]",–
O=C1C(=O)N(CCN2CCOCC2)C(c2ccc(Cl)cc2)/C1=C(/O)c1ccc(S(=O)(=O)N2CCOCC2)cc1 (stereo not given),inactive,–
Cc1cc(NC(=O)c2ccc(Cl)cc2)n(-c2ccccc2)n1,inactive,–
CCc1ccc(NC(=O)c2cc(C)on2)cc1,inactive,–
Cc1ccccc1-n1ncc2c1CC(C)(C)CC2NC(=O)C1CCC1 (stereo not given),"inconclusive [inhibitor, partial curve]",–
CCC(=O)NC(c1ccc(OC)c(OC)c1)c1cc(Cl)c2cccnc2c1O (stereo not given),active: 1.04 µM,–
CC(C(=O)NC1CCCC1)N(Cc1ccc2c(c1)OCO2)C(=O)c1snc(C(N)=O)c1N (stereo not given),"inconclusive [inhibitor, single point]",–
